Data reported in PubChem BioAssay AID493208 (National Center for Advancing Translational Sciences (NCATS), 2011).
In all, about 44,000 compounds went through this assay and about 340 (0.77%) were called active. Roughly 5% stayed inconclusive and do not appear here. Calls follow the shape of the dose curve; as a rule, active = well fitted inhibition curve with a large enough effect; inconclusive = small, poorly fitted or top-dose-only effect; inactive = flat fitted curve, though single readings scatter. This is one part of the list.

Test: Acumen qHTS Assay for Inhibitors of the mTORC1 Signaling Pathway in MEF (Tsc2-/-, p53-/-) Cells: Sytravon;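 also: plate controls were DMSO for no effect and rapamycin for full effect; nearly all actives have a fitted effect of over 50% in size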
Conditions: phospho-rpS6 immunofluorescence/PI, 24 h; series mostly up to 38.3 µM; activity change, negative = inhibition: at the top concentration
How it was run: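 Tsc2-/-, p53-/- mouse embryonic fibroblasts (empty-vector line) exposed to compound 24 hrs at 37 C, fixed, immunostained for phospho-rpS6 and counterstained with propidium iodide. Acumen laser scanning gives % positive cells from Alexa 488/PI ratio, thresholded using 7.5 nM rapamycin; PI count gives viability.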

Activity change, negative = inhibition, inactive:
CCOCCCn1c(SCC(=O)NCCCOC)nc2c(sc3ccccc32)c1=O -8.92%
Cc1c(NC(=O)c2ccccc2)cc(C(C)C)c(O)c1S(=O)(=O)c1ccc(Cl)cc1 -1.93%
Fc1ccc(Nc2ncnc3c2nc2n3CCCC2)cc1 -4.34%
CCOCCCNC(=O)c1c[nH]c2ccc(S(=O)(=O)Nc3cccc(Cl)c3C)cc2c1=O -1.52%
CCOC(=O)N1CCc2c(sc3c2c(=O)n(-c2ccc(Cl)cc2)c(=O)n3Cc2cccc(C)c2)C1 -1.96%
COc1ccccc1N1CCN(S(=O)(=O)c2cc3[nH]c(=O)c(=O)[nH]c3cc2C)CC1 0.677%
O=C(NCCS(=O)(=O)N1CCN(c2ccc(F)cc2)CC1)c1cc(=O)c2ccccc2o1 0.966%
Cc1ccc(C)c(NC(=O)C(Cc2ccccc2)N2Cc3ccccc3C2=O)c1 (stereo unspecified) -13.2%
Cc1ccc2occ(CC(=O)N(Cc3ccc(N(C)C)cc3)C3CCS(=O)(=O)C3)c2c1 (stereo unspecified) -1%
CCOc1ccc(CNC(=O)CCC(=O)N2CCSc3ccccc32)cc1 -4.44%
COc1ccc2nc(N3CCN(C(=O)C4CC4)CC3)sc2c1 -0.755%
COc1ccc(NC(=O)N2CCc3c([nH]c4ccc(OC)cc34)C2c2ccc(OC)cc2)cc1 (stereo unspecified) 1.73%
COC(=O)c1cc2oc3ccccc3c2n1Cc1c(F)cccc1Cl 1.65%
CCc1cccc(NC(=O)CN2CCCN(Cc3cccc(C)c3)S2(=O)=O)c1 14.7%
COc1ccc(N2CCN(C(=O)c3ccc4nc(N5CCC(C)CC5)sc4c3)CC2)cc1 -0.186%
Cc1ccc(Cl)cc1N(C)C(=O)c1cnc(N2CCOCC2)c2ccccc12 -8.35%
CCN(CC)C(=O)C1CCCN(c2ncnc3onc(C)c23)C1 (stereo unspecified) 8.95%
COc1cccc(-c2nc3c(C#N)c[nH]n3c2NC2CCCCC2)c1OC 0.8%
CC(NC(=O)c1sc2ncccc2c1-n1cccc1)c1ccccc1 (stereo unspecified) -4.1%
O=C(NCC(c1cccnc1)N1CCN(Cc2ccccc2)CC1)C(=O)Nc1cccc(F)c1 (stereo unspecified) 0%
Cc1ccc(Cn2c(=O)n(CC3CCC(C(=O)N4CCOCC4)CC3)c(=O)c3sccc32)cc1 (stereo unspecified) 2.56%
O=C(CC1Oc2ccc(Cl)cc2NC1=O)NCc1ccccc1 (stereo unspecified) -0.0621%
CCOC(=O)CC(NC(=O)Cn1nnc(-c2ccc(C(F)(F)F)cc2)n1)c1ccc(C)cc1 (stereo unspecified) -9.15%
COc1ccc(CCNC(=O)CCCCCn2c(SCC(N)=O)nc3cc4c(cc3c2=O)OCO4)cc1OC -3.78%
Cc1ccc(S(=O)(=O)N2CCCc3cc(NC(=O)c4ccccc4Cl)ccc32)cc1 20.1%
CCN(CC)S(=O)(=O)c1ccc2c(c1)N(CC(=O)Nc1ccc(F)cc1)C(=O)CO2 1.39%
Cc1ccc(C)c(N(C)C(=O)C2CCN(c3ncnc4c3nc3n4CCCCC3)CC2)c1 -1.51%
Cn1cnc(S(=O)(=O)N2CCCC(C(=O)Nc3cccc(C#N)c3)C2)c1 (stereo unspecified) 15.1%
COc1ccc(NC(=O)N(Cc2nnc3n2CCCCC3)c2ccc(OC)c(Cl)c2)cc1 3.49%
Cc1ccc(CNCc2c(C(=O)O)c(C)n(Cc3ccc(C)cc3)c2C)cc1 -4.81%
O=C(Nc1c(C(=O)c2ccc(F)cc2)oc2ccccc12)c1cc(-c2ccccc2)on1 -10%
CCN(CC)S(=O)(=O)c1nnc(NC(=O)COc2cccc(C)c2)s1 -2.09%
CCn1c(=O)cc(OCC(=O)Nc2cc(OC)c(OC)c(OC)c2)c2ccccc21 -0.648%
COCCNC(=O)CSc1nc2ccccc2nc1Cc1ccc(C)cc1 4.63%
COc1cccc(N2CCN(c3ccc4nnc(CCC(=O)O)n4n3)CC2)c1 -2.96%
CCOc1ccc(CNC(=O)c2ccc3nc(CC)c(CC)nc3c2)cc1OC -5.22%
CCc1ccc(S(=O)(=O)c2c(C(=O)c3ccc(C)c(C)c3)cnc3ccccc23)cc1 -11.8%
O=C(Cn1c(=O)n(-c2ccccc2)c(=O)c2c3c(sc21)CCCC3)Nc1cccc(F)c1 -4.41%
CN(C)c1ccc(CNC(=O)c2ccc(NC(=O)c3nsc4ccccc34)cc2)cc1 5.59%
COc1cccc(Cc2nc3ccccc3nc2SCC(=O)Nc2ccccc2F)c1 1.92%
Cc1c(C(=O)NCc2ccccc2Cl)cccc1-n1cnc2cccnc21 -9.98%
Cc1cccc(CNC(=O)c2ccc3nc(-c4ccccc4)c(-c4ccccc4)nc3c2)c1 0.989%
Cc1cccc(NC(=O)Cn2c(=O)n(CCc3ccccc3)c(=O)c3sc4ccccc4c32)c1 -10.2%
CC(C)C1N=C2c3ccccc3N=C(SCC(=O)NCc3ccc(F)cc3)N2C1=O (stereo unspecified) 0%
CCC12CN3CC(C)(CN(C1)C3c1c(C)n(C)c3ccccc13)C2=O (stereo unspecified) 0.775%
O=C(CSc1nc2c([nH]c3ccccc32)c(=O)n1-c1ccc(F)cc1)N1CCCc2ccccc21 1.34%
CCOC(=O)Cn1c(=O)n(C2CCCCC2)c2nc(-c3ccccc3Cl)nc(C(N)=O)c21 -2.03%
Nc1c(-c2nc(-c3ccc(Cl)cc3)no2)nnn1-c1ccc(C(F)(F)F)c(Cl)c1 -9.42%
COc1cc(NC(=O)c2cc(C3CC3)nc3c2c(C)nn3-c2ccc(C)cc2)cc(OC)c1 0.561%
Cc1cccc(C)c1OCc1nc2c3cnn(-c4ccccc4Br)c3ncn2n1 -1.67%
CCOC(=O)CC(NC(=O)c1cc2c(=O)n3cccc(C)c3nc2s1)c1ccc(OCC(C)C)c(OC)c1 (stereo unspecified) -6.47%
COc1ccc(-c2c(C)nn3c(-c4ccccc4)cc(-c4ccccc4)nc23)cc1OC 1.04%
COc1ccc(CCN2C(=O)c3[nH]nc(-c4ccccc4O)c3C2c2ccc(O)c(OC)c2)cc1 (stereo unspecified) 6.82%
O=C(NC1CCCCC1)c1cc(Nc2ccccc2)nc2ccccc12 -1.52%
COC(=O)c1ccc(NC(=O)CCNS(=O)(=O)c2cccc3nsnc23)cc1 -5.24%
CCC(CC)C(=O)Nc1nnc2n1CCS2 -7.19%
Cn1nccc1C(=O)NCc1ccc2c(c1)CCN2C(=O)c1ccc(F)cc1 -7.65%
Cc1ccc(C(=O)N2CCC(c3c[nH]c4ccccc34)(c3c[nH]c4ccccc34)CC2)cc1 1.85%
COc1cccc(CNC(=O)c2ccc(Cn3c(SCc4ccccc4)nc4cccnc43)cc2)c1 1.29%
COc1ccccc1Nc1cc(C(=O)NCCCN(C)c2ccccc2)c2ccccc2n1 -1.14%
COc1ccc(OC)c(-c2cc(C(=O)Nc3cccc(Cl)c3C)no2)c1 -22.9%
